# Source: the supplement of paper PMC4604168 (melanoma cell lines)
# The other results are listed elsewhere or left out. Single values are uncertain, as repeats are few or missing.
# Experiments:
# Assay in all cases: cell count relative to DMSO control; melanoma cells; higher = more viable cells
# Details in all cases: library dose: standard library concentration; 72 h
# G361 = system: G361
# IPC-298 = system: IPC-298
# IST-MEL1 = system: IST-MEL1
# LB2518-MEL = system: LB2518-MEL
# LOXIMVI = system: LOXIMVI
# MEL-HO = system: MEL-HO
# MZ2-MEL = system: MZ2-MEL
# MeWo = system: MeWo
# RPMI7951 = system: RPMI7951
# RVH-421 = system: RVH-421
# 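Also: cells treated in 1,536-well plates, then fixed and DAPI-stained, with nuclei counted from automated high-throughput microscope images.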
SMILES,cell count (G361) [%],cell count (IPC-298) [%],cell count (IST-MEL1) [%],cell count (LB2518-MEL) [%],cell count (LOXIMVI) [%],cell count (MEL-HO) [%],cell count (MZ2-MEL) [%],cell count (MeWo) [%],cell count (RPMI7951) [%],cell count (RVH-421) [%]
"N#CC[C@H](C1CCCC1)n1cc(-c2ncnc3[nH]ccc23)cn1 [ruxolitinib] + Clc1ccc(Nc2nnc(Cc3ccncc3)c3ccccc23)cc1 [vatalanib] (first compound 5 µM, partner dose 10 µM)",47.4,69.7,63.1,93.7,81.1,50.7,80.7,48.9,81.2,50.7
"CC[C@]1(O)C[C@H]2CN(CCc3c([nH]c4ccccc34)[C@@](C(=O)OC)(c3cc4c(cc3OC)N(C=O)[C@H]3[C@@](O)(C(=O)OC)[C@H](OC(C)=O)[C@]5(CC)C=CCN6CC[C@]43[C@@H]65)C2)C1 [vincristine] + O=c1cc(-c2cccc3c2Sc2ccccc2S3)oc(N2CCOCC2)c1 [KU55933] (first compound 0.0005 µM, partner dose 5 µM)",55.7,87.1,63.2,50.1,84.8,72.7,54.1,36.5,40.7,40.3
"Cc1cc(Nc2cc(N3CCN(C)CC3)nc(Sc3ccc(NC(=O)C4CC4)cc3)n2)n[nH]1 [Tozasertib] + CC[C@]1(O)C[C@H]2CN(CCc3c([nH]c4ccccc34)[C@@](C(=O)OC)(c3cc4c(cc3OC)N(C=O)[C@H]3[C@@](O)(C(=O)OC)[C@H](OC(C)=O)[C@]5(CC)C=CCN6CC[C@]43[C@@H]65)C2)C1 [vincristine] (first compound 0.03 µM, partner dose 0.0005 µM)",94.5,92.1,75.7,88.7,65.6,94.2,79.3,70.9,40.1,86.1
"N#CC[C@H](C1CCCC1)n1cc(-c2ncnc3[nH]ccc23)cn1 [ruxolitinib] + C[C@]1(O)C[C@@H](c2nc(-c3ccc4ccc(-c5ccccc5)nc4c3)c3c(N)nccn32)C1 [OSI906] (first compound 5 µM, partner dose 2 µM)",62.3,80.9,94.4,121,89.8,71.7,96.2,68.4,74.1,96.6
"N#CC[C@H](C1CCCC1)n1cc(-c2ncnc3[nH]ccc23)cn1 [ruxolitinib] + OCc1c[nH]c2ccccc12 [Indole-3-carbinol] (first compound 5 µM, partner dose 4 µM)",90.2,80.2,98.5,113,147,89.7,83.5,106,88.3,78.9
"Cc1cc(Nc2cc(N3CCN(C)CC3)nc(Sc3ccc(NC(=O)C4CC4)cc3)n2)n[nH]1 [Tozasertib] + CCN(CC)CCCCNc1ncc2cc(-c3cc(OC)cc(OC)c3)c(NC(=O)NC(C)(C)C)nc2n1 [PD173074] (first compound 0.03 µM, partner dose 0.5 µM)",91.2,81.3,97.3,77.2,92.8,77.2,66.1,68.4,83.8,80.8
"CC[C@]1(O)C[C@H]2CN(CCc3c([nH]c4ccccc34)[C@@](C(=O)OC)(c3cc4c(cc3OC)N(C=O)[C@H]3[C@@](O)(C(=O)OC)[C@H](OC(C)=O)[C@]5(CC)C=CCN6CC[C@]43[C@@H]65)C2)C1 [vincristine] + CC1(C)CCC(c2ccc(Cl)cc2)=C(CN2CCN(c3ccc(C(=O)NS(=O)(=O)c4ccc(N[C@H](CCN5CCOCC5)CSc5ccccc5)c(S(=O)(=O)C(F)(F)F)c4)cc3)CC2)C1 [ABT263] (first compound 0.0005 µM, partner dose 2 µM)",78.9,98.3,98,95.1,79.2,80.1,112,90.5,50.3,80.4
"Cc1cc(Nc2cc(N3CCN(C)CC3)nc(Sc3ccc(NC(=O)C4CC4)cc3)n2)n[nH]1 [Tozasertib] + O=c1cc(-c2cccc3c2Sc2ccccc2S3)oc(N2CCOCC2)c1 [KU55933] (first compound 0.03 µM, partner dose 5 µM)",64.5,83.6,92.3,78.7,114,78,66.6,75.5,68.8,97
"CC[C@]1(O)C[C@H]2CN(CCc3c([nH]c4ccccc34)[C@@](C(=O)OC)(c3cc4c(cc3OC)N(C=O)[C@H]3[C@@](O)(C(=O)OC)[C@H](OC(C)=O)[C@]5(CC)C=CCN6CC[C@]43[C@@H]65)C2)C1 [vincristine] + Cn1cc(/C=C2\C(=O)Nc3cccnc32)c2ccccc21 [GW441756] (first compound 0.0005 µM, partner dose 2 µM)",83.5,84.6,73.2,103,88.7,105,62.1,62.4,43.4,71.7
"N#CC[C@H](C1CCCC1)n1cc(-c2ncnc3[nH]ccc23)cn1 [ruxolitinib] + C[C@]1(c2nc3c(C(N)=O)cccc3[nH]2)CCCN1 [Veliparib] (first compound 5 µM, partner dose 7 µM)",75.7,70.9,81.7,90.9,92.7,70.6,71.7,75.1,86.8,100
"N#CC[C@H](C1CCCC1)n1cc(-c2ncnc3[nH]ccc23)cn1 [ruxolitinib] + O=C(/C=C/c1cccnc1)NCCCCC1CCN(C(=O)c2ccccc2)CC1 [FK866] (first compound 5 µM, partner dose 0.05 µM)",6.83,18.8,52.8,42.5,50.6,36,27,83.7,93.7,16.1
"N#CC[C@H](C1CCCC1)n1cc(-c2ncnc3[nH]ccc23)cn1 [ruxolitinib] + CC1(C)CCC(c2ccc(Cl)cc2)=C(CN2CCN(c3ccc(C(=O)NS(=O)(=O)c4ccc(N[C@H](CCN5CCOCC5)CSc5ccccc5)c(S(=O)(=O)C(F)(F)F)c4)cc3)CC2)C1 [ABT263] (first compound 5 µM, partner dose 2 µM)",54.5,104,84.1,108,98.2,52.1,92.7,75.2,51.2,55.1
"Cc1cc(Nc2cc(N3CCN(C)CC3)nc(Sc3ccc(NC(=O)C4CC4)cc3)n2)n[nH]1 [Tozasertib] + Oc1nc(-c2ccc(C(F)(F)F)cc2)nc2c1CSCC2 [XAV939] (first compound 0.03 µM, partner dose 10 µM)",65.7,72.7,81.6,79,94.9,82.1,57.6,80.3,59.5,71.1
"CC[C@]1(O)C[C@H]2CN(CCc3c([nH]c4ccccc34)[C@@](C(=O)OC)(c3cc4c(cc3OC)N(C=O)[C@H]3[C@@](O)(C(=O)OC)[C@H](OC(C)=O)[C@]5(CC)C=CCN6CC[C@]43[C@@H]65)C2)C1 [vincristine] + CCN(CC)CCCCNc1ncc2cc(-c3cc(OC)cc(OC)c3)c(NC(=O)NC(C)(C)C)nc2n1 [PD173074] (first compound 0.0005 µM, partner dose 0.5 µM)",103,88.5,105,106,94.3,95.4,104,88.2,110,138
"N#CC[C@H](C1CCCC1)n1cc(-c2ncnc3[nH]ccc23)cn1 [ruxolitinib] + O=c1[nH]nc(Sc2ncc([N+](=O)[O-])s2)n1-c1ccc2c(c1)OCCO2 [BI78D3] (first compound 5 µM, partner dose 1 µM)",90.5,88,85.4,121,127,79.9,90.6,94.7,77.8,67.8
"N#CC[C@H](C1CCCC1)n1cc(-c2ncnc3[nH]ccc23)cn1 [ruxolitinib] + Cn1c(=O)n(-c2ccc(C(C)(C)C#N)cc2)c2c3cc(-c4cnc5ccccc5c4)ccc3ncc21 [NVP-BEZ235] (first compound 5 µM, partner dose 0.02 µM)",42.7,81.4,70.3,66.9,76.5,51.1,74.6,59,57.7,59.7
"Cc1cc(Nc2cc(N3CCN(C)CC3)nc(Sc3ccc(NC(=O)C4CC4)cc3)n2)n[nH]1 [Tozasertib] + CN(NC(=O)CC(=O)NN(C)C(=S)c1ccccc1)C(=S)c1ccccc1 [STA4783] (first compound 0.03 µM, partner dose 0.03 µM)",48.2,72.9,42.9,24.1,67.6,87.5,82.8,23,93.4,87.1
"CC[C@]1(O)C[C@H]2CN(CCc3c([nH]c4ccccc34)[C@@](C(=O)OC)(c3cc4c(cc3OC)N(C=O)[C@H]3[C@@](O)(C(=O)OC)[C@H](OC(C)=O)[C@]5(CC)C=CCN6CC[C@]43[C@@H]65)C2)C1 [vincristine] + COc1ccc(COc2ccc(Cc3cnc(N)nc3N)cc2OC)cc1 [GW2580] (first compound 0.0005 µM, partner dose 5 µM)",93.7,88.5,96.3,113,103,93.9,87.8,101,89.6,94
"N#CC[C@H](C1CCCC1)n1cc(-c2ncnc3[nH]ccc23)cn1 [ruxolitinib] + Cc1ccc(Nc2nccc(N(C)c3ccc4c(C)n(C)nc4c3)n2)cc1S(N)(=O)=O [Pazopanib] (first compound 5 µM, partner dose 2 µM)",64.1,60.1,87.2,85.7,94.2,78.2,53.8,77.4,52,68.7
